Assay results: the supplement of paper PMC11417369
Some of the results follow.

These sequences were tested on PfSIP2 AP2 domain 1 (GST-tagged) (assay: gcPBM binding intensity (ln(normalized median fluorescence intensity)); higher = stronger DNA binding).
Procedure, shortened: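 Plasmodium falciparum DNA-binding domains carrying a GST tag were expressed in E. coli and applied for 1 h, at about 25 μg on average, to an Agilent 4 × 180k array. The array held primer-extended double-stranded 36-bp intergenic genomic probes together with negative controls, and binding took place in 1× PBS with 1% milk, 0.2 mg/ml BSA, 0.5% salmon testes DNA and 0.03% Triton X-100. An Alexa488 anti-GST antibody detected bound protein, and the array was scanned at 488 nm. Binding intensity is taken as the highest Masliner-normalised natural-log median intensity across replicate spots of either probe orientation.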

| Sequence | gcPBM binding intensity (ln) |
| --- | --- |
| TTATTTTAATTTTTGGTGCATATTCAAGTGTACCTT [GTGCAC_site9791] | 9.68 |
| TATTTACATATTTATATACACACTTTTGCGTGTCTG [CACACA_site1110] | 6.9 |
| AAATAAAATACAATATGATAAAATGTTATCATATAT [CACACA_negctrl_site538] | 6.82 |
| ATAAATAATATAAATACACACTAAAAAAGATATATA [CACACA_site6397] | 7.01 |
| AATAAAAGGAATAATTGTACATAATGATTATACGTT [XGTACX_site7548] | 6.95 |
| GTTGTAAAAAGAAAATGTACGTAATAAATATATATA [XGTACX_site3081] | 7.45 |
| AATACTCCATTGTATAGTACATATATTTTTATTTAT [XGTACX_site3641] | 6.87 |
| AATAAAAAAAAAAATAATATATATGTATAAATATAT [CACACA_negctrl_site1561] | 6.83 |
| TATTTTTATTTATATACACACTTACATATTTATATT [CACACA_site7666] | 7.14 |
| AGAATTTATAAAAACTGTACATATTTTCCAGTTATA [XGTACX_site2848] | 6.79 |
| ATATAATATAACAATACGCACACGTATACAAAAAAA [CACACA_site3151] | 7.18 |
| ATGTAATCATTTTCGACTTTTTTTTTTTTTTTTTTT [CACACA_negctrl_site1132] | 7.87 |
| AGGAAATGTTTATATACATGCATAATTAAATATAAT [TGCATGCA_site672] | 6.89 |
| ATAAAATGCGCAAACACACACAAAAAAAAGATATAT [CACACA_site6875] | 7.08 |
| TTTTTAATTAATCTTATAAATATTTATAAATATATA [CACACA_negctrl_site1485] | 6.79 |
| TTTTTTTTTTTTTTTTTTTTCTTCATTTAATTTATA [GTGCAC_negctrl_site17] | 7.05 |
| ATTATATTTCAATTATGTACATATAAAATGAATAAA [XGTACX_site4204] | 7.19 |
| AATTTTCATTTTAGAAGTACACACAAAAAATAAAAT [XGTACX_site4426] | 7.07 |
| TTTTCATGTTTTTTTCTTTATTTTTTTTTTTTTTTT [GTGCAC_negctrl_site511] | 7.31 |
| TTTTTTTATTATTATTGTACAAGGCCTTAGGTGATT [XGTACX_site5050] | 7.26 |
| TACTTAATTATAAGGACATGCACAAAAGGAATTATT [TGCATGCA_site468] | 9.06 |
| TATTAAACAAATTATGCAAAAATAAATCAATATGTT [CACACA_negctrl_site171] | 6.89 |
| CAATTTATAAAGAAAACACACATATACATATATACA [CACACA_site1260] | 6.9 |
| ATTATTTTATAATTCACACATAAATAAAAAAAAAAT [CACACA_site5290] | 6.86 |
| TTAGGAAGCTCACAAAATAAAGTGAAAAGAAGAAAA [XGTACX_negctrl_site572] | 6.64 |
| AAAAGTTTTATTTAAATGAATTAATCTTTACTATAT [CACACA_negctrl_site282] | 6.69 |

| Sequence | gcPBM binding intensity (ln) |
| --- | --- |
| TGATTTCCAGGTTATTGTACAAAATTAATTTTCGAA [XGTACX_site2491] | 7.25 |
| ATATATATAAAACACACACACAAAAAAAATAAAGAC [CACACA_site117] | 8.02 |
| TAAATATTATTTCATAGTACTTTTATTATTGATATA [XGTACX_site5566] | 6.93 |
| TTTTGTAGTTTATAAATAAAAGAGAATATGGTGCTT [CACACA_negctrl_site413] | 7.7 |
| TAAATAAATATATATACACACATATATATATATATA [CACACA_site598] | 9.65 |
| TGTATGTATTAATGCGCACACAAAAAATAACAATAT [CACACA_site1848] | 9.32 |
| AAAAAAAAAAAAAAGAGTACACAGACGTTCAAAGGT [XGTACX_site7566] | 7.5 |
| ACAGAGCTTTAAATACGTACATAATATATATTAAAT [XGTACX_site8221] | 7.25 |
| ATATAGATATATAGTAGTACTTGTTATATAAGATAA [XGTACX_site6336] | 7.2 |
| TATTGATTTAGAAACACACACTCGAAGATGTTTAAC [CACACA_site1129] | 6.84 |
| TTTAAAAAATGTTATATTATATAATTAAAAAAAAAA [CACACA_negctrl_site1509] | 6.63 |
| ATATATATATATAAATGTACATTGTGTGTTGTAAGA [XGTACX_site2434] | 9.11 |
| ATAAAAAAAAAATAATGTACTTATATATATATATAT [XGTACX_site8282] | 9.32 |
| GTATATTATTTACGTTTGCACTTCATTTTATAGTAA | 8.08 |
| TATTAATTGTGGCACCTTGTATGTTTACAATGACAT [CACACA_negctrl_site1383] | 8.32 |
| TTCTTCAAAAAAAATTGTACACATCTCTCAAATGTT [XGTACX_site2952] | 6.99 |
| AATGGATGAATGAATGTATGAATGAATGTATGAATG [CACACA_negctrl_site91] | 7.17 |
| ATGTATGTGTAACATAGTACTTTTTAAAAGGATATT [XGTACX_site5328] | 6.92 |
| TATAGATACATATACACACACACACCCACATATATA [CACACA_site3436] | 7.18 |
| AATATCATATAAAAATGTACAAATTCTAAAACACGA [XGTACX_site1442] | 7.29 |
| TATTTTTTATAATAATGTACATATATATATATAATA [XGTACX_site2329] | 7.35 |
| GTATTCATGCTAAAGGTGCAATAATTTTTATAATAA [GTGCAC_site9603] | 10.9 |
| AAGATAAAATTATGTAGTACAAAAAAAAATAAAAAA [XGTACX_site139] | 6.86 |
| ATCAAACCTTTTAAATGTACATTCGGAGTAAAAAAA [XGTACX_site282] | 7.21 |
| TTAAAAATGTTGGAAAGTACATATTTTTTAAAAGTA [XGTACX_site802] | 7.03 |
| CGCCTATAAGCTTAGACACACAAATAAATAAATATA [CACACA_site1264] | 6.97 |

| Sequence | gcPBM binding intensity (ln) |
| --- | --- |
| TACCTAATTCGGTCCCGTACAAGTTAGTTTCAATTC [XGTACX_site2703] | 6.55 |
| TATTGGGGGTATAAACACAGTAAGTAAATAAATAAA [CACACA_negctrl_site1680] | 7.41 |
| TCTATTCATTTTGAAGGTACACATTTCTTTATAATA [XGTACX_site6218] | 6.99 |
| GTATTAGATAAATACACACACAAGCATATATTTTTA [CACACA_site3431] | 6.93 |
| AATATATCATTATATAAACACACAATATGTTTTTTA [CACACA_site9260] | 6.72 |
| AAAAATATATATATATATATATATATAAGGAATATA [XGTACX_negctrl_site450] | 7.69 |
| AATAAATATATAAATACACACAAACATACATATATA [CACACA_site9340] | 7.09 |
| AATACAATATAGTGAAAAATAATTAAATACAATAAG [XGTACX_negctrl_site161] | 6.93 |
| CGTAAACAATTATGATGTACATAAAATATATATATA [XGTACX_site2705] | 8.58 |
| TTGTTCCACAAAAATTTAGTCAAAAAAAAATAAAAA [TGCATGCA_negctrl_site546] | 6.76 |
| ACAAAAAAAAAAATAACACACATGGGGGTGTATAAA [CACACA_site3797] | 7.39 |
| AATGAATAACAATACTATATGATTTTTAATACATTA [XGTACX_negctrl_site42] | 6.67 |
| TTAAATTTTTTTTTGTGTACGAAAAACAGAAAAAAT [XGTACX_site8625] | 7.31 |
| TATGTGTATGGGAATGCATGTAAATATGTACATATA [TGCATGCA_site737] | 7.29 |
| ATATATATATACATATGTACATATAAAATAATTTTG [XGTACX_site3731] | 9.05 |
| TCTTCCCAAATAAAGTGTACATAAATACGAATAATA [XGTACX_site4363] | 7.18 |
| AAAATTAAAATATATACACACATATATATATTAAAT [CACACA_site4419] | 6.79 |
| TAATGTATATGTAAATGTACATGTATATTATTTAAA [XGTACX_site1840] | 6.93 |
| ATCAAAGATAAATTTACACACATATATATATATATA [CACACA_site2969] | 9.46 |
| AAGATATTTGTATAATGTACAAAACTATATAAAACT [XGTACX_site1433] | 6.77 |
| TATTTTCATTTGCGCGCACACAATAATAATTTTTGG [CACACA_site3525] | 7.88 |
| AACAATTATTTATCTACACACTTTTATGTTATTTAC [CACACA_site9] | 7.06 |
| TATAAATTAATGACATGTACATAAAAGTATAGATGT [XGTACX_site6534] | 7.3 |
| TAAAAAATATAAATGACACACACTTAAAAACAAAGA [CACACA_site671] | 7.21 |
| AAATATACAAAATATACACACATATTTATTTATGAT [CACACA_site2051] | 6.9 |
